Assay results published in PubChem BioAssay AID1745853 (National Center for Advancing Translational Sciences (NCATS), 2022).
“And” between values parts separate entries of the source, which are not always exact repeats. Equal values may be shown once. This is one part of the list. The main result of the screen is listed elsewhere. These columns were measured beside it and carry no call.

Assays:
Test in all cases: Primary Screen for Target Class Profiling of Small Molecule Inhibitors of Methyltransferases
[1] = target: Glycine N-methyltransferase (Homo sapiens) (UniProt Q14749); details: purified enzyme, MTase-Glo SAH luminescence; measured here: GNMT inhibition; at 40 µM; stronger effect = lower value
Outline: (§1)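 Each enzyme was assayed with SAM and its substrate. SAH formation detected by MTase-Glo luminescence; single-point 40 uM screen[…].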

[2] = target: Guanidinoacetate N-methyltransferase (Homo sapiens) (UniProt Q14353); details: purified enzyme, MTase-Glo SAH luminescence; measured here: GAMT inhibition; at 40 µM; stronger effect = lower value
Outline: as §1

[3] = target: Histamine N-methyltransferase (Homo sapiens) (UniProt P50135); details: purified enzyme, MTase-Glo SAH luminescence; measured here: HNMT inhibition; at 40 µM; stronger effect = lower value
Outline: as §1

[4] = target: Nicotinamide N-methyltransferase (Homo sapiens) (UniProt P40261); details: purified enzyme, MTase-Glo SAH luminescence; measured here: NNMT inhibition; at 40 µM; stronger effect = lower value
Outline: as §1

[5] = target: Phenylethanolamine N-methyltransferase (Homo sapiens) (UniProt P11086); details: purified enzyme, MTase-Glo SAH luminescence; measured here: PNMT inhibition; at 40 µM; stronger effect = lower value
Outline: as §1
% is scaled to controls: 0 for no effect and ±100 for the full control effect.

Structure (SMILES)	activity change, negative = inhibition [1]	activity change, negative = inhibition [2]	activity change, negative = inhibition [3]	activity change, negative = inhibition [4]	activity change, negative = inhibition [5]
CC(=O)O[C@]1(C(C)=O)CC[C@H]2[C@@H]3C=C(Cl)C4=CC(=O)[C@@H]5C[C@@H]5[C@]4(C)[C@H]3CC[C@@]21C	-5.42% and -11%	-7.73% and 1.55%	-10.5% and -3.32%	-34.7% and -19.1%	-12.9% and -3.9%
Cc1ccc(N2C(=O)c3cc4ccccc4n3CC2(C)C(=O)NCCC(C)C)cc1C (stereo not drawn)	2.53%	0.084%	4.9%	3.65%	-1.39%
COCC1CCN(c2ccc(-c3nc(-c4ccccc4C)no3)cn2)C1 (stereo not drawn)	-12.7%	-11%	-29.5%	-4.43%	-3.9%
Cc1cc2c(cc3n2CC(C)(C(=O)NC2CCCCCC2)N(C2CCCC2)C3=O)o1 (stereo not drawn)	1.13%	1.03%	3.81%	2.25%	-1.23%
O=C(C1CCCN1C(=O)C1CCCC1)N1CCC(N2Cc3ccccc3C2=O)CC1 (stereo not drawn)	-6.02%	-9.75%	-4.7%	-22.9%	-6.86%
CCCCNc1nc2c(-c3cccc(C)c3)nnn2c2ccccc12	-5.84%	-1.94%	-8.1%	-6.44%	-19.7%
O=C(Nc1ccc(C(O)(C(F)(F)F)C(F)(F)F)cc1)c1ccc(C(F)(F)F)cc1	-3.27%	14.4%	10.3%	-6.44%	7.75%
CCCn1c(=O)c2ccc(C(=O)NC(C)C)cc2n2c(=O)n(CC(=O)Nc3ccc(C)cc3)nc12	4.53%	1.58%	1.52%	8.5%	-0.977%
CC1(C(=O)NCc2ccccc2)Cn2c(cc3ccccc32)C(=O)N1CCc1ccco1 (stereo not drawn)	-1.26%	4.96%	4.81%	-9.12%	-2.37%
COc1ccc(CNC(=O)c2ncn3c2C(=O)N(C2CC2)C(C)(C(=O)NCc2cccc(C)c2)C3)cc1 (stereo not drawn)	2.56%	5.32%	13.7%	6.04%	11%
COc1ccc(-c2ccc3ncc4c(c3c2)n(-c2ccc(N3CCNCC3)c(C(F)(F)F)c2)c(=O)n4C)cn1	-46.6%	-11.6% and -12.7%	-47.4%	-35.8% and -30.2%	-28.3% and -39%
CCC(C)C(=O)Oc1cc(C)ccc1C1(COC(=O)C(C)C)CO1 (stereo not drawn)	-1.02%	-1.89%	8.21%	-15.1%	-0.547%
COc1cccc(CNC(=O)Cn2ccc3cc(S(=O)(=O)N4CCCCC4)ccc32)c1	4.52%	4.65%	-1.08%	-8.78%	-0.22%
CC(C)Cn1c(=O)c2ccc(C(=O)NC(C)C)cc2n2c(SCC(=O)c3ccccc3)nnc12	0.233%	0%	-1.76%	0.544%	1.31%
CN(C)CCNC(=O)c1ccnc(-c2nnc3ccc(N(C)c4ccccc4)nn23)c1	-7%	-7.48%	-55.3%	-15.3%	-7.34%
CC1(C(=O)NC2CCCCCC2)Cn2nc(-c3cccs3)cc2C(=O)N1Cc1ccc(F)cc1 (stereo not drawn)	5.77%	0.906%	9.07%	3.46%	3.14%
O=C(N[C@@H]1CCOC[C@H]1OCc1ccccn1)c1cccc(-n2cnnc2)c1	-2.01%	0.571%	-0.498%	-0.308%	5.28%
CCCCNc1ncc2c(-c3ccc(CN4CCN(C)CC4)cc3)cn(C3CCC(O)CC3)c2n1 (stereo not drawn)	-8.46%	0.029%	-1.22%	-23.1%	-3.67%
CNC12CC3C[C@@](C)(C1)C[C@](C)(C3)C2	-5.14%	-12.2%	-7.45%	-16.7%	-0.672%
COC(=O)CNC(=O)c1cc(-c2ccc(Cl)cc2Cl)c2cnn(C)c2n1	-7.49%	-6.1%	-5.29%	-34%	-9.46%

Structure (SMILES)	activity change, negative = inhibition [1]	activity change, negative = inhibition [2]	activity change, negative = inhibition [3]	activity change, negative = inhibition [4]	activity change, negative = inhibition [5]
O=C1CO[C@H]2CN(Cc3ncc[nH]3)C[C@H]2N1Cc1ccc(F)cc1	-5.47%	-5.81%	-3.65%	-6.08%	9.81%
COc1ccc(CNC(=O)c2cc3n(n2)CC(C)(C(=O)NCc2ccc(F)cc2)N(C)C3=O)cc1OC (stereo not drawn)	-6.24%	-3.19%	-1.53%	-3.72%	-5.08%
CCCn1c(=O)c2ccc(C(=O)NC(C)C)cc2n2c(SCc3cccc(C)c3)nnc12	3.77%	0.677%	1.63%	-5.24%	-3.6%
COc1cc(NC(=O)Cn2nc3n(CCC(C)C)c(=O)c4ccccc4n3c2=O)cc(OC)c1	2.13%	6.65%	5.68%	-0.611%	2.7%
O=C(CC1CCN(S(=O)(=O)c2ccc(F)cc2F)C1)NCc1ccccc1 (stereo not drawn)	-9.33%	-15.5%	-5.28%	-13.6%	-10.3%
CC(C)OCCCNC(=O)CCn1ccc2cc(S(=O)(=O)N3CCCCC3)ccc21	10.1%	2.65%	7.5%	9.74%	5.49%
CC(C)CCn1c(=O)c2ccccc2n2c(=O)n(CC(=O)Nc3ccccc3F)nc12	0.604%	4.66%	-1.6%	-3.96%	4.6%
CCCN1CCN(C(=O)c2cc3n(n2)CC(C)(C(=O)NC2CCCC2)N(C)C3=O)CC1 (stereo not drawn)	-3.59%	4.73%	-3.15%	1.44%	0.666%
c1ccc(CNc2nc(-c3ccccc3)no2)cc1	-7.53%	-8.32%	-5.17%	-10.2%	-5.98%
CCOC(=O)c1cc2n(n1)CC(C)(C(=O)NC1CCC(C)CC1)N(c1ccccc1OC)C2=O (stereo not drawn)	1.03%	-1.23%	4.38%	-2.25%	0.537%
CC(C)n1nc(Cc2cccc3ccccc23)c2c(N)ncnc21	–	-10.5%	–	-44.6%	-55.3%
O=C(NCc1ccc(F)cc1)c1ccc2c(=O)nc3c(-c4ccccc4)n[nH]n3c2c1	-7.69%	1.59%	-2.09%	-4.34%	-0.27%
C=C1C[C@]23C[C@H]1CC[C@H]2[C@@]12C=C[C@H](O)[C@@](C)(C(=O)O1)[C@H]2[C@@H]3C(=O)O	4.12%	2.08%	5.76%	-9.97%	3.2%
CC(C(=O)NCc1ccc(Cl)cc1)n1ccc2cc(S(=O)(=O)N3CCCCC3)ccc21 (stereo not drawn)	4.56%	0%	7.64%	2.36%	3.66%
CNC(=O)c1noc([C@@H]2CC(F)(F)CN2C(=O)CCOC)n1	0.278%	2.5%	0.866%	-1.38%	-2.31%
C=C1C[C@@]2(O)O[C@@]3(C[C@H]2C(C)C)[C@@H](C)CC[C@@H]13	-0.649%	6.18%	11.5%	-9.5%	3.1%
Cc1cc(C)c(-c2csc(NC(=O)c3ccccc3)n2)c(C)c1	0.432%	-14.7%	0.974%	-24.5%	-11.1%
CCOc1ccccc1CN1C(=O)c2cc3ccc(OC)cc3n2CC1(C)C(=O)NC1CCCCC1 (stereo not drawn)	0.632%	4.76%	-1.57%	-1.84%	-3.23%
O=C(O)COCCN1CCN(C(c2ccccc2)c2ccc(Cl)cc2)CC1 (stereo not drawn)	-1.07%	8.23%	4.01%	-12.1%	4.54%
CCOC(=O)c1cc2n(n1)CC(C)(C(=O)NC1CCCCCC1)N(Cc1ccc(OCC)cc1)C2=O (stereo not drawn)	-1.28%	2.07%	-0.612%	-7.1%	-1.69%

Structure (SMILES)	activity change, negative = inhibition [1]	activity change, negative = inhibition [2]	activity change, negative = inhibition [3]	activity change, negative = inhibition [4]	activity change, negative = inhibition [5]
Cc1cccc(CNC(=O)C2CC(c3ccc(F)c(C)c3)CN(C(=O)c3ccccc3)C2)c1 (stereo not drawn)	-3.45%	1.5%	-0.218%	-3.58%	-0.434%
O=C(Cn1ccn2nc3c(c2c1=O)CCCCC3)NCc1ccccc1Cl	-7.34%	-10.6%	-3.39%	-7.48%	-6.22%
O=C(COc1ccccc1)N1C[C@@H](CO)[C@H](c2ccccn2)C1	-3.26%	-2.38%	0.509%	-5.24%	0.639%
CN1C[C@H](C(=O)N[C@]2(C)O[C@@]3(O)[C@@H]4CCCN4C(=O)[C@H](Cc4ccccc4)N3C2=O)C[C@@H]2c3cccc4[nH]cc(c34)C[C@H]21	-33.6%	12.4%	-0.576%	-4.44%	1.28%
Cc1cc(C)cc(NC(=O)CSc2nnc3n(Cc4ccccc4)c(=O)c4ccccc4n23)c1	4.57%	0%	7.19%	6.86%	5.6%
CC(C)OCCCNC(=O)c1ccc2c(=O)nc3c(-c4ccccc4)n[nH]n3c2c1	-1.15%	1.8%	3.29%	0.103%	-1.32%
CCN1CCN(c2nc3c(S(=O)(=O)c4ccc(Br)cc4)nnn3c3ccccc23)CC1	-4.85%	1.45%	-31.3%	2.7%	-2.03%
Cn1cc(-c2cnn3c(N)c(Br)c([C@@H]4CCCNC4)nc23)cn1	-7.07%	-2.29% and -1.06%	-77.1%	-26.1% and -21.3%	-63% and -63.4%
O=C1NC(=NC2CCCCC2)C2(CCN(Cc3ccccc3)CC2)N1c1cc(F)cc(F)c1	-1.44%	0.156%	0.273%	0.281%	-2.32%
C/C=C/C=C/C(O)=C1/C(=O)[C@]2(C)C3/C(=C(O)/C=C/C=C/C)C(=O)C4(C)C1[C@]1(C)O[C@@]4(O)[C@@]3(C)O[C@@]12O	7.14%	7%	10.2%	-4.14%	9.02%
CC(C)c1cc2n(n1)CC(C)(C(=O)NC1CCCCCC1)N(c1cccc(Cl)c1)C2=O (stereo not drawn)	2.35%	4.92%	0.823%	3.33%	-0.229%
Cc1ccc(C2c3cccn3-c3sc4c(c3CN2C(=O)Nc2ccc(F)cc2F)CCCC4)cc1 (stereo not drawn)	-5.7%	-4.05%	1.91%	-5.56%	-3.12%
COCC1CN(S(=O)(=O)Cc2cccc(F)c2)CC12CCNCC2 (stereo not drawn)	-1.8%	1.66%	-5.68%	-3.33%	11.5%
CC(C)NCC(C(=O)N1CCN(c2ncnc3c2C(C)CC3O)CC1)c1ccc(Cl)cc1 (stereo not drawn)	-5.71%	-1.99%	-6.57%	-16.2%	-3.91%
Cc1ccc(N2C(=O)c3ccc(-c4ccco4)n3CC2(C)C(=O)NC2CCCC2)cc1 (stereo not drawn)	-3.18%	-1.22%	2.88%	4.08%	-1.47%
N[C@@H]1CONC1=O	3.24%	9.98%	8.01%	-7.83%	-1.28%
CN1CCC(N2C[C@@H]3C[C@H]2C(=O)N(CC2CC2)c2ccccc2O3)CC1	-2.42%	-4.27%	-69.1%	-5.96%	-2.88%
CCc1ccccc1NC(=O)c1ncn2c1C(=O)N(C1CC1)C(C)(C(=O)NCc1ccccc1OC)C2 (stereo not drawn)	3.94%	0%	5.98%	4.32%	6.11%
CN1Cc2ccc(NCc3ccccc3)nc2C(C)(C(=O)Nc2ccccc2)C1 (stereo not drawn)	-6.18%	-1.4%	-7.13%	-14.1%	-1.88%
